In patent US12583836B2 (Anaxis Pharma Pty Ltd, priority 2020, dated 2026) one finds IC50 data, which are given here for 18 compounds.

What is called IC50 is the point on the concentration scale where inhibition reaches its midpoint.

Read-outs that look alike come from different tables or passages of the source.

The subject of one assay is U937 cells. Put plainly: Counter screen: cell viability without the TSQ cocktail (CelltiterGlo). Set-up: species or system human. The following applies: read-out: Off-target effect (IC50 cell-based assay). As for the experimental part: Counter screen: In parallel, all compounds were tested for their ability to affect cell viability. The same U937 cells were treated with compound in DMSO without the TSQ cocktail. This counter screen enabled evaluation of off-target effects. In this case, cell viability was measured by CelltiterGlo.

The subject of assay [1] is U937 human histiocytic leukemia cell line. Nature of the assay: Inhibition of TSQ induced necroptosis, 384 well plate format (CellTitre-Glo). The following applies: U937 cells, TSQ cocktail (TNF, Smac mimetic, Q-VD-OPh), CelltiterGlo, read-out: Inhibition of TSQ-induced necroptosis (IC50 cell-based assay). How it is done:
[…] ASSAY: Screening compounds for inhibition of TSQ induced necroptosis, 384 well plate format.
Cell Line ID: U937 human histiocytic leukemia cell line.
Cell Concentration (cells/well): Final cell density is 20000 cells per well.
Cell growth medium: HT-RPMI medium+7.4% Fetal Bovine Serum (FBS). Cells are cultured in Corning 150 cm^2 tissue culture flasks with vented caps at 37° C./5% CO2.
Incubation: Plates were incubated at 37° C./5% CO2 in a humidified incubator for 48 hours following addition of compounds and death stimuli (TSQ cocktail).
Compound concentration: 36 μM starting concentration, 1:3 dilution, 10 point
DMSO final concentration (% v/v): 0.3%.
Compounds in TSQ cocktail (T: TNF; S: Smac mimetic; Q: Q-VD-OPh) and their final concentrations:
hTNF-Fc (100 ng/ml)—produced by standard procedures as shown in Bossen et al., J Biol Chem, 2006, 281(20), 13964-13971.
Compound A (500 nM)—Smac mimetic, Tetralogic and SYNthesis med chem
Q-VD-OPh (10 μM)—MP Biomedicals
The cellular assay was carried out according to the following steps: • 1. Each well was prepared by sequential addition of: • a. DMSO (control; columns 1-2 and 23-24) or compound in DMSO—addition was performed using acoustic transfer of nl volumes of stock compound to give final test concentrations of 36, 12, 4, 1.3, 0.44, 0.148, 0.049, 0.016, 0.005 and 0.002 μM. All wells were backfilled with DMSO to a final total volume in the well of 100 nl. • b. Following compound/DMSO addition in step (a), 40 μL of cell suspension (5×10^5 cells/mL) was added to provide a final cell concentration of 20,000 cells per well, and • c. Following cell addition in step (b), 10 μL of 5×TSQ cocktail (except to positive controls; columns 1 and 23) was added to each well. • 2. After 48 hours, plate was removed from the 37° C. incubator and equilibrated to room temperature for 45 minutes. • 3. 15 μL of room temperature CellTitre-Glo2™ (Promega™) was added to each well. • 4. Shook plates for 2 minutes (˜600 rpm) and incubated at room temperature for 15 minutes to allow signal to stabilise. • 5. Read luminescence readout on a plate reader. Analysis:
Percent viability was calculated for each compound according to equation (2):
[formula] • wherein • RawData is the readout of any cell containing a compound of the invention • TA is the total activity provided by the luminescence readout from DMSO only wells (columns 2 and 24)=100% viability • NSA is the non-specific activity provided by DMSO+TSQ wells (columns 1 and 23)=0% viability
Curve fitting: 10-point titration curves are fitted with the 4-parameter logistic nonlinear regression model and the IC50 reported is the inflection point of the curve.
Analysis: Data was loaded into Dotmatics™ and visualised using the Tibco® Spotfire™ software. 10 points titration curves were fitted with the 4-parameter logistic nonlinear regression model and the IC50 reported reflect the inflection point of the curve for curve fitting.
Assay involving the TSQ cocktail (T: TNF; S: Smac mimetic; Q: Q-VD-OPh): TSQ treatment ensures that cells specifically undergo necroptotic cell death. TNF activates the TNF receptor, Smac mimetic directs the signal away from proinflammatory signaling and toward the RIP1/RIP3-mediated cell death pathways, and Q-VD-OPh ensures that the apoptotic response is blocked leaving only the programmed necrosis response. The compounds' activity (solution in DMSO) tested in this TSQ-induced assay was evaluated by determining the number of viable cells in culture by measuring the amount of ATP present as measured by CelltiterGlo.
(In general: In ATP-based viability assays light output follows the ATP content of the culture.)

Setting [2] is: Homo sapiens, U-937, cell viability by CelltiterGlo.

Consider `COc1cnc(Nc2[nH]nc(-c3ccc(NS(=O)(=O)C(F)F)c(OCc4ccc(F)cc4)c3)c2C(N)=O)cn1` [Compound 191, 3-(4-((difluoromethyl)sulfonamido)-3-((4-fluorobenzyl)oxy)phenyl)-5-((5-methoxypyrazin-2-yl)amino)-1H-pyrazole-4-carboxamide], for which the IC50 in the assay on U937 cells (setting [2]) is greater than 30000 nM; in assay [1] (Homo sapiens, U-937) it was 10 to 1000 nM.
The corresponding values for `CCS(=O)(=O)Nc1ccc(-c2n[nH]c(Nc3ccc(C(F)(F)F)nc3)c2C(N)=O)cc1OCc1ccc(F)cc1` [Compound 194] are 1000 to 30000 nM and 10 to 1000 nM.
Regarding `COc1ccc(Nc2[nH]nc(-c3ccc(NS(=O)(=O)C(F)F)c(OCc4ccc(F)cc4)c3)c2C(N)=O)cn1` [Compound 196, 3-(4-((difluoromethyl)sulfonamido)-3-((4-fluorobenzyl)oxy)phenyl)-5-((6-methoxypyridin-3-yl)amino)-1H-pyrazole-4-carboxamide], the IC50 in the assay with U937 cells (setting [2]) is greater than 30000 nM; in assay [1] (Homo sapiens, U-937), 10 to 1000 nM.
As to `CCS(=O)(=O)Nc1ccc(-c2c(C(N)=O)c(Nc3cnccn3)nn2C)cc1` [Compound 222, 5-(4-(ethylsulfonamido)phenyl)-1-methyl-3-(pyrazin-2-ylamino)-1H-pyrazole-4-carboxamide], the IC50 is greater than 30000 nM in the assay on U937 cells (setting [2]) and 1000 to 30000 nM in assay [1] (Homo sapiens, U-937).
For the compound `NC(=O)c1c(-c2ccc(NS(=O)(=O)CC(F)(F)F)c(OCc3ccc(F)cc3)c2)n[nH]c1Nc1cnc(C(F)(F)F)cn1` [Compound 238, 3-{3-[(4-fluorophenyl)methoxy]-4-(2,2,2-trifluoroethanesulfonamido)phenyl}-5-{[5-(trifluoromethyl)pyrazin-2-yl]amino}-1H-pyrazole-4-carboxamide], the IC50 in the assay with U937 cells (setting [2]) is greater than 30000 nM; in assay [1] (Homo sapiens, U-937), 10 to 1000 nM.
The corresponding values for `NC(=O)c1c(-c2ccc(NS(=O)(=O)C(F)F)c(OCc3ccc(F)cc3)c2)n[nH]c1Nc1cnc(C(F)(F)F)cn1` [Compound 246, 3-[4-(difluoromethanesulfonamido)-3-[(4-fluorophenyl)methoxy]phenyl]-5-{[5-(trifluoromethyl)pyrazin-2-yl]amino}-1H-pyrazole-4-carboxamide] are greater than 30000 nM and 10 to 1000 nM.
As to `CCS(=O)(=O)Nc1ccc(-c2n[nH]c(Nc3cnccn3)c2C(N)=O)cc1OC1(c2ccc(F)cc2)CC1` [Compound 248, 3-{4-ethanesulfonamido-3-[1-(4-fluorophenyl)cyclopropoxy]phenyl}-5-[(pyrazinyl)amino]-1H-pyrazole-4-carboxamide], the IC50 in the assay on U937 cells (setting [2]) was greater than 30000 nM; in assay [1] (Homo sapiens, U-937), 10 to 1000 nM.
Regarding `C[C@H](Oc1cc(-c2n[nH]c(Nc3cnccn3)c2C(N)=O)ccc1NS(=O)(=O)C(F)F)c1ccc(Cl)cc1` [Compound 252, 3-{3-[(1S)-1-(4-chlorophenyl)ethoxy]-4-(difluoromethanesulfonamido)phenyl}-5-[(pyrazin-2-yl)amino]-1H-pyrazole-4-carboxamide], the IC50 with U937 cells (setting [2]) was greater than 30000 nM; in assay [1] (Homo sapiens, U-937), 1000 to 30000 nM.
Regarding `C[C@H](Oc1cc(-c2c(C(N)=O)c(Nc3cnccn3)nn2C)ccc1NS(=O)(=O)C(F)F)c1ccc(F)cc1` [Compound 253, 5-[4-(difluoromethanesulfonamido)-3-[(1S)-1-(4-fluorophenyl)ethoxy]phenyl]-1-methyl-3-[(pyrazin-2-yl)amino]-1H-pyrazole-4-carboxamide], the IC50 in the assay on U937 cells (setting [2]) was greater than 30000 nM; in assay [1] (Homo sapiens, U-937) it was 1000 to 30000 nM.
The like results for `C[C@H](Oc1cc(-c2n[nH]c(Nc3cnccn3)c2C(N)=O)ccc1NS(=O)(=O)CC(F)(F)F)c1cccc(Cl)c1` [Compound 256, 3-{3-[(1S)-1-(3-chlorophenyl)ethoxy]-4-(2,2,2-trifluoroethane-sulfonamido)phenyl}-5-[(pyrazin-2-yl)amino]-1H-pyrazole-4-carboxamide] were, in that order, greater than 30000 nM and greater than 30000 nM.
With `C[C@H](Oc1cc(-c2n[nH]c(Nc3ccccn3)c2C(N)=O)ccc1NS(=O)(=O)C(F)F)c1ccc(F)cc1` [Compound 260, 3-[4-(difluoromethanesulfonamido)-3-[(1S)-1-(4-fluorophenyl)ethoxy]phenyl]-5-[(pyridin-2-yl)amino]-1H-pyrazole-4-carboxamide], the IC50 with U937 cells (setting [2]) is greater than 30000 nM; in assay [1] (Homo sapiens, U-937) it was less than 10 nM.
Take `C[C@H](Oc1cc(-c2n[nH]c(Nc3cnccn3)c2C(N)=O)ccc1NS(=O)(=O)CC(F)(F)F)c1cccc(F)c1` [Compound 265]: the IC50 with U937 cells (cell viability by CelltiterGlo) is greater than 30000 nM; in assay [1], 1000 to 30000 nM.
In the case of `C[C@@H](Oc1cc(-c2n[nH]c(Nc3cnccn3)c2C(N)=O)ccc1NS(=O)(=O)C(F)F)c1ccc(F)cc1` [Compound 271, (R)-3-(4-((difluoromethyl)sulfonamido)-3-(1-(4-fluorophenyl)ethoxy)phenyl)-5-(pyrazin-2-ylamino)-1H-pyrazole-4-carboxamide], the IC50 with U937 cells (setting [2]) is greater than 30000 nM; in assay [1] (Homo sapiens, U-937), 10 to 1000 nM.
In the case of `NC(=O)c1c(-c2ccc(NS(=O)(=O)C(F)F)c(OCc3nccs3)c2)n[nH]c1Nc1cnccn1` [Compound 275, 3-(4-((difluoromethyl)sulfonamido)-3-(thiazol-2-ylmethoxy)phenyl)-5-(pyrazin-2-ylamino)-1H-pyrazole-4-carboxamide], the IC50 with U937 cells (setting [2]) is greater than 30000 nM; in assay [1] (Homo sapiens, U-937), 1000 to 30000 nM.
Turning to `C[C@H](Oc1cc(-c2n[nH]c(Nc3cc(C4(C)CC4)on3)c2C(N)=O)ccc1NS(=O)(=O)C(F)F)c1ccc(F)cc1` [Compound 276, (S)-3-(4-((difluoromethyl)sulfonamido)-3-(1-(4-fluorophenyl)ethoxy)phenyl)-5-((5-(1-methylcyclopropyl)isoxazol-3-yl)amino)-1H-pyrazole-4-carboxamide], the IC50 was 1000 to 30000 nM in the assay with U937 cells (setting [2]) and less than 10 nM in assay [1] (Homo sapiens, U-937).
On to `C[C@H](Oc1cc(-c2n[nH]c(Nc3cc(C(F)(F)F)n(C)n3)c2C(N)=O)ccc1NS(=O)(=O)C(F)F)c1ccc(F)cc1` [Compound 277, (S)-3-(4-((difluoromethyl)sulfonamido)-3-(1-(4-fluorophenyl)ethoxy)phenyl)-5-((1-methyl-5-(trifluoromethyl)-1H-pyrazol-3-yl)amino)-1H-pyrazole-4-carboxamide], for which the IC50 in the assay with U937 cells (setting [2]) was greater than 30000 nM; in assay [1] (Homo sapiens, U-937), less than 10 nM.
`C[C@H](Oc1cc(-c2n[nH]c(Nc3ccc(C4CCOCC4)cn3)c2C(N)=O)ccc1NS(=O)(=O)C(F)F)c1ccc(F)cc1` [Compound 278, (S)-3-(4-((difluoromethyl)sulfonamido)-3-(1-(4-fluorophenyl)ethoxy)phenyl)-5-((5-(tetrahydro-2H-pyran-4-yl)pyridin-2-yl)amino)-1H-pyrazole-4-carboxamide]: the IC50 with U937 cells (setting [2]) is greater than 30000 nM; in assay [1] (Homo sapiens, U-937), less than 10 nM.
In the case of `C[C@H](Oc1cc(-c2n[nH]c(Nc3cc(C4CCC4)on3)c2C(N)=O)ccc1NS(=O)(=O)C(F)F)c1ccc(F)cc1` [Compound 281, (S)-5-((5-cyclobutylisoxazol-3-yl)amino)-3-(4-((difluoromethyl)sulfonamido)-3-(1-(4-fluorophenyl)ethoxy)phenyl)-1H-pyrazole-4-carboxamide], the IC50 in the assay with U937 cells (setting [2]) was greater than 30000 nM; in assay [1] (Homo sapiens, U-937), 10 to 1000 nM.
